# The campaign covered roughly 410,000 compounds. About 5,000 (1.2%) were called active. This list was built around the results that the source calls inconclusive (neither active nor inactive); the mix of calls is not that of the screen. The call rests on the fitted dose curve; in most records, active means well fitted inhibition curve with a large enough effect; inconclusive means small, poorly fitted or top-dose-only effect; inactive means no such curve, though single readings can be large or run the other way. Potencies of inconclusive entries are doubtful fits and often do not repeat.
# Test: qHTS for Inhibitors of TGF-b; further: nearly all actives have a fitted effect of over 65% in size
# Settings: HepG2 CAGA-GFP TGF-b/SMAD3 reporter, GFP fluorescence, 18 h, TGF-beta stimulated, 500 pg/mL final; series mostly up to 46.1 µM
# Outline: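 Using HEPG2 CAGA-GFP reporter cells at 1000 cells/well, we pinned test compounds, stimulated with recombinant TGF-beta (500 pg/mL final) and measured total well GFP after 18 h.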
# Potency means the concentration at half of the fitted maximal effect; tags describe the fitted curve by direction and shape.
row,SMILES,Potency
1,O=C(CN1CCN(c2ccc(Cl)cc2)CC1)Nc1ccc(F)cc1F,"inconclusive: 35.5 µM [inhibitor, single point]"
2,Cc1cccc(C)c1Nc1c(-c2ccsc2)nc2ccccn12,"inconclusive: 22.4 µM [inhibitor, single point]"
3,O=C(Nc1ccc(Cl)cc1)c1ccc(CN2CCc3ccccc3C2)cc1,"inconclusive: 0.891 µM [inhibitor, partial curve, poor fit]"
4,Cc1ccc(CN(Cc2cccnc2)C(=S)Nc2cc(Cl)ccc2C)cc1,"inconclusive: 15.8 µM [inhibitor, single point]"
5,CC(=O)Nc1ccc(-c2ccnc3c2CC(C(=O)Nc2ccc(C(C)C)cc2)O3)cc1 (centres undefined),"inconclusive: 1.58 µM [inhibitor, full curve, poor fit]"
6,Cc1cc(O)c(C(c2ccc(F)cc2)N2CCCCC2)c(=O)n1Cc1ccco1 (centres undefined),inactive
7,O=C(Nc1cccc(C(=O)N2CCCCC2)c1)c1nsc2ccccc12,"inconclusive: 12.6 µM [inhibitor, single point]"
8,O=C(NNS(=O)(=O)c1ccc(F)cc1)c1ccc([N+](=O)[O-])cc1,"inconclusive: 5.01 µM [inhibitor, single point]"
9,CCCCCCCCn1c2c(c(=N)c3c1CCC3)CCCC2,active: 8.91 µM
10,CCOc1ccccc1NC(=O)c1c(C)cc(C)nc1SCC(=O)c1cccc(OC)c1,inactive
11,CCc1nc2ccc(C(=O)NC3CCN(C)CC3)cn2c1N(C)CCC(C)C,"inconclusive: 35.5 µM [inhibitor, single point]"
12,COc1cc2cc(C(=O)N3CCOCC3)cc(-c3ccc(C)cc3)c2cc1OC,"inconclusive: 35.5 µM [inhibitor, single point]"
13,O=S(=O)(Nc1cccc(Oc2cnccn2)c1)c1ccc(F)cc1,"inconclusive: 2.82 µM [inhibitor, partial curve, poor fit]"
14,COc1ccc(OC)c(Nc2nc(-c3ccccc3O)nc3ccccc23)c1,"inconclusive: 0.794 µM [inhibitor, full curve]"
15,OC(c1ccc(F)c(F)c1)c1nc(-c2cccc(F)c2)cs1 (centres undefined),inactive
16,Cc1ccc(-c2nc(NC(=O)c3nn(C)cc3[N+](=O)[O-])sc2C)cc1C,"inconclusive: 7.08 µM [inhibitor, full curve, poor fit]"
17,O=C1CCCN1CC(O)CS(=O)(=O)Cc1ccc(Cl)cc1Cl (centres undefined),inactive
18,Cc1cccc(C2=NN(c3ccccc3)[C@H](CO)[C@H]2c2ccc(F)cc2)c1,active: 20 µM
19,Cn1cc([N+](=O)[O-])c(C(=O)N(Cc2ccccc2)Cc2ccccc2)n1,inactive
20,CC(NC(=O)COc1ccccc1-c1ccccc1)c1ccccc1 (centres undefined),"inconclusive: 35.5 µM [inhibitor, single point]"
21,CCN(CC)C(=O)c1cccc(-c2csc(C(O)c3ccc(F)c(F)c3)n2)c1 (centres undefined),"inconclusive: 20 µM [inhibitor, single point]"
22,Cc1ccc(NC(=O)CSc2nn(-c3ccc(Cl)cc3)c(=S)s2)cc1S(=O)(=O)N(C)C,"inconclusive: 3.16 µM [inhibitor, full curve]"

row,SMILES,Potency
1,NS(=O)(=O)c1cccc(NC(=O)CCCC2CCCCC2)c1,"inconclusive: 11.2 µM [inhibitor, partial curve, poor fit]"
2,Cc1ccc(SCC(=O)c2cc(C)c(O)c(C)c2)cc1,"inconclusive: 35.5 µM [inhibitor, single point]"
3,Cc1cc(Cn2nc(C(=O)NCc3cccc(Br)c3)cc2-c2ccccc2)on1,"inconclusive: 35.5 µM [inhibitor, single point]"
4,O=c1[nH]c(=S)c2ncn(-c3ccccc3)c2[nH]1,inactive
5,CNc1ccccc1C(C)(C)c1cc(-c2ccc(F)cc2)no1,"inconclusive: 3.16 µM [inhibitor, full curve]"
6,CC1Cc2ccccc2N1c1ncnc2nc[nH]c12 (centres undefined),"inconclusive: 35.5 µM [inhibitor, single point]"
7,CCOC(=O)c1nnn(-c2ccc([N+](=O)[O-])cc2[N+](=O)[O-])c1C,active: 10 µM
8,CCCNC(=O)CSc1nnc(C)s1,inactive
9,Cn1cc(C(=O)Nc2ccc(F)c(Cl)c2)cn1,"inconclusive: 0.631 µM [inhibitor, partial curve, poor fit]"
10,CCc1ccc(NC(=O)CSCc2nc(N)nc(Nc3ccccc3CC)n2)cc1,inactive
11,O=C(NCCN1C(=O)S/C(=C\c2cccnc2)C1=O)c1cccc(OC(F)F)c1,"inconclusive: 6.31 µM [inhibitor, partial curve, poor fit]"
12,Cc1ccc(NC(=S)NNC(=O)c2c(Cl)c(C)nn2C)cc1,"inconclusive: 35.5 µM [inhibitor, single point]"
13,O=C(c1ccco1)N1CCN(Cc2ccc(Cl)cc2)CC1,"inconclusive: 4.47 µM [inhibitor, full curve, poor fit]"
14,Cc1nnc(SCC(=O)NCCN2C(=O)CSC2=O)s1,"inconclusive: 5.62 µM [inhibitor, single point]"
15,O=S(=O)(c1cccc(Br)c1)N1CCN(c2ccnc3cc(Cl)ccc23)CC1,"inconclusive: 20 µM [inhibitor, single point]"
16,Cc1ccc2nc(SCC(=O)c3cc(C)n(C)c3C)[nH]c2c1,"inconclusive: 15.8 µM [inhibitor, partial curve, poor fit]"
17,Cc1cc(=O)[nH]c(SCC(=O)c2ccc(C(C)C)cc2)n1,inactive
18,CCOc1ccc(OCCOCCNCCOC)cc1,"inconclusive: 1.58 µM [inhibitor, partial curve, poor fit]"
19,CCOC(=O)CNC(=O)/C=C/c1c(Cl)cccc1Cl,"inconclusive: 35.5 µM [inhibitor, single point]"
20,CC(C)(C)n1ncc2c(=O)n(Cc3cccc(C(F)(F)F)c3)cnc21,"inconclusive: 12.6 µM [inhibitor, single point]"
21,O=S(=O)(NCCc1ccccc1)c1ccc(N2CCCCS2(=O)=O)cc1,"inconclusive: 20 µM [inhibitor, single point]"
22,CCSc1nc(=O)n(-c2ccccc2)c(C)c1C(C)=O,inactive

# — PubChem BioAssay AID588855 (National Center for Advancing Translational Sciences (NCATS), 2011)
